What was measured:
[1] = target: T1, BCA-1 (Homo sapiens, UniProt O43927); assay: In vitro T cell adhesion to VCAM-1 induced by BCA-1 under shear flow; format: cell-based; details: 10 μg/ml peptide; T cells on VCAM-1 under shear flow
T1 sequence (O43927 23-109): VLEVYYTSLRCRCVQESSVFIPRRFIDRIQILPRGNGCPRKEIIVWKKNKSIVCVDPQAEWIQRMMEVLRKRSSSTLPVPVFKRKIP
Method: (§1) 50 ml of blood was added to 10 ml of a solution of Dextran T-500 (6% w/v) in PBS (phosphate buffer saline), and 7 ml of citrate buffer (25 grams citrate, 8 grams citric acid in 500 ml PBS). The solution was incubated for 30 minutes at 25° C. 10 ml of Ficoll 1077 was added to the bottom of the tube. The tube was then centrifuged at 2,000 rotations per minute for 30 minutes at 18° C. (with the brake mode of the centrifuge off). The interphase was collected and washed twice with 8 ml PBS with 5% FCS (fetal calf serum), followed by centrifugation at 1,400 rotations per minute for 5 minutes at 18° C. The cells were re-suspended in PBS with 5% FCS at a concentration less then 10^8 per ml. […]
(§2) In order to perform lysis of the erythrocytes, the red pellet was re-suspended in 5 ml of lysis-buffer (155 mM NH4Cl, 10 mM KHCO3, 0.1 mM EDTA, X0.1 PBS) for 4 minutes, followed by immediate addition of 50 ml of PBS with EDTA. […] The cells were ready for use in experiments after overnight incubation at 37° C. […]
(§3) The plates were then assembled as the lower wall of a parallel wall flow chamber and mounted on the stage of an inverted microscope. […] The number of adherent cells resisting detachment by the elevated shear forces was determined after each interval by analysis of videotaped cell images, and was expressed as the percent of originally settled cells. […]

[2] = target: T2, SDF-1 (Homo sapiens, UniProt P48061); assay: In vitro T cell adhesion to VCAM-1 induced by SDF-1 under shear flow; format: cell-based; details: 10 μg/ml peptide; T cells on VCAM-1 under shear flow
T2 construct: purchased PeproTech
T2 sequence (P48061 22-89 limits assumed): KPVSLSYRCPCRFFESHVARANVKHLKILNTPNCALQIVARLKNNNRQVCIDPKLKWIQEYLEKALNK
Method: as §1, §2, §3

[3] = target: T3, I-TAC (Homo sapiens, UniProt O14625); assay: In vitro T cell adhesion to VCAM-1 induced by I-TAC under shear flow; format: cell-based; details: for Inhibition of chemokine-dependent T cell adhesion: I-TAC: 10 μg/ml peptide, T cells on VCAM-1 under shear flow; for T cell adhesion induced by I-TAC (result in words): T cells on VCAM-1
T3 construct: purchased PeproTech
T3 sequence (O14625 22-94): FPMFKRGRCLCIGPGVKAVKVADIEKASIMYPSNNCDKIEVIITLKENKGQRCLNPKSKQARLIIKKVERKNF
Method: (§4) 50 ml of blood was added to 10 ml of a solution of Dextran T-500 (6% w/v) in PBS (phosphate buffer saline), and 7 ml of citrate buffer (25 grams citrate, 8 grams citric acid in 500 ml PBS). The solution was incubated for 30 minutes at 25° C. 10 ml of Ficoll 1077 was added to the bottom of the tube. The tube was then centrifuged at 2,000 rotations per minute for 30 minutes at 18° C. (with the brake mode of the centrifuge off). The interphase was collected and washed twice with 8 ml PBS with 5% FCS (fetal calf serum), followed by centrifugation at 1,400 rotations per minute for 5 minutes at 18° C. The cells were re-suspended in PBS with 5% FCS at a concentration less then 10^8 per ml. 2 ml of the cell solution were applied on a poly(methyl methacrylate) nylon wool column which was pre-soaked in PBS-5% FCS, and then incubated for 45 minutes at 25° C. Each column was washed with 8 ml PBS-5% FCS and the cells (T-cells and erythrocytes) were eluted by 50 ml of 5 mM EDTA (ethylenediaminetetraacetic acid) in PBS. A red pellet was obtained by centrifugation at 1,400 rotations per minute for 5 minutes at 4° C. (with the brake on).
(§5) In order to perform lysis of the erythrocytes, the red pellet was re-suspended in 5 ml of lysis-buffer (155 mM NH4Cl, 10 mM KHCO3, 0.1 mM EDTA, X0.1 PBS) for 4 minutes, followed by immediate addition of 50 ml of PBS with EDTA. Following centrifugation at 1,400 rotations per minute for 5 minutes at 4° C., the pellet was washed again with 50 ml PBS-EDTA and re-centrifuged under the same conditions. A white pellet was obtained and re-suspended in RPMI medium with 10% FCS, L-glutamine, sodium pyruvate and antibiotics at a concentration of 3×10^6 cells per ml. The cells were incubated for 2 hours at 37° C., followed by collection of the non-adherent cells. The cells were ready for use in experiments after overnight incubation at 37° C.
(§6) 10 μg/ml of human VCAM-1 and 2 μg/ml of a chemokine (intact MIG, IP-10, I-TAC, MCP-1, RANTES, SDF-1 (stromal cell-derived factor-1), BCA-1 (B lymphocyte chemoattractant-1), IL-8 (interleukin-8) or eotaxin, or heat-inactivated SDF-1 as a control) were dissolved in PBS buffered with 20 mM bicarbonate (pH 8.5), and incubated in polystyrene plates overnight at 4° C. Alternatively, 10 μg/ml of the chemokine was used, and the plates were incubated for 30 minutes at room temperature. […]
as §3

[4] = system: PLP-derived EAE; assay: Experimental autoimmune encephalomyelitis (EAE) induced with PLP peptide (acute disease); format: in vivo, SJL mice; details: for average clinical score of PLP-derived EAE / accumulating clinical score of PLP-derived EAE: 50 μg/mouse intravenously, vs control mice; for mice with EAE clinical scores of 0: day 27 of the experiment, 8 of 10 control mice had scores of at least 2
[5] = system: delayed type hypersensitivity; assay: In vivo delayed type hypersensitivity mouse model (mBSA); design: species or system C57BL/6 mice; details: FIG. 9; for inhibition of delayed type hypersensitivity: 50 μg/mouse intravenously 24 hours before challenge
[6] = target: T4, RANTES (Homo sapiens, UniProt P13501); assay: In vitro T cell adhesion to VCAM-1 induced by RANTES under shear flow; format: cell-based; details: for Inhibition of chemokine-dependent T cell adhesion: RANTES: 10 μg/ml peptide, T cells on VCAM-1 under shear flow; for T cell adhesion induced by RANTES (result in words): T cells on VCAM-1
T4 construct: purchased PeproTech
T4 sequence (P13501 24-91): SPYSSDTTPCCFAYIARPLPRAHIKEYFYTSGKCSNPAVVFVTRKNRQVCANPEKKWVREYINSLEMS
Method: as §4, §5, §6, §3

[7] = system: MOG-derived EAE; assay: Experimental autoimmune encephalomyelitis (EAE) induced with MOG peptide (chronic disease); format: in vivo, C57BL/6 mice; details: FIG. 7; through day 55; 50 μg/mouse intravenously; vs control mice
[8] = target: T5, Eotaxin (Homo sapiens, UniProt P51671); assay: In vitro T cell adhesion to VCAM-1 induced by eotaxin under shear flow; format: cell-based; details: for Inhibition of chemokine-dependent T cell adhesion: Eotaxin: 10 μg/ml peptide, T cells on VCAM-1 under shear flow; for T cell adhesion induced by eotaxin (result in words): T cells on VCAM-1
T5 construct: purchased PeproTech
T5 sequence (P51671 24-97): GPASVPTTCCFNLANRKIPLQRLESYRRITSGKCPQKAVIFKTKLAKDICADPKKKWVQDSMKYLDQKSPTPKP
Method: as §4, §5, §6, §3

[9] = target: T6, IP-10 (Homo sapiens, UniProt P02778); assay: In vitro T cell adhesion to VCAM-1 induced by IP-10 under shear flow; format: cell-based; details: for Inhibition of chemokine-dependent T cell adhesion: IP-10: 10 μg/ml peptide, T cells on VCAM-1 under shear flow
T6 construct: purchased PeproTech
T6 sequence (P02778 22-98): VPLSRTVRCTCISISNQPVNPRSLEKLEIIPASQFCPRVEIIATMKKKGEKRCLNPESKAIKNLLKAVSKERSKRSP
Method: as §4
In order to perform lysis of the erythrocytes, the red pellet was re-suspended in 5 ml of lysis-buffer (155 mM NH4Cl, 10 mM KHCO3, 0.1 mM EDTA, X0.1 PBS) for 4 minutes, followed by immediate addition of 50 ml of PBS with EDTA. Following centrifugation at 1,400 rotations per minute for 5 minutes at 4° C., the pellet was washed again with 50 ml PBS-EDTA and re-centrifuged under the same conditions. […] The cells were ready for use in experiments after overnight incubation at 37° C. […]
as §3

[10] = target: T7, MCP-1 (Homo sapiens, UniProt P13500); assay: In vitro T cell adhesion to VCAM-1 induced by MCP-1 under shear flow; format: cell-based; details: for Inhibition of chemokine-dependent T cell adhesion: MCP-1: 10 μg/ml peptide, T cells on VCAM-1 under shear flow; for T cell adhesion induced by MCP-1 (result in words): T cells on VCAM-1
T7 construct: purchased PeproTech
T7 sequence (P13500 24-99): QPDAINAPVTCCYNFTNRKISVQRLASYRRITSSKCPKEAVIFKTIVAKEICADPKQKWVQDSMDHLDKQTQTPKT
Method: as §4, §5, §6, §3

[11] = target: T8, MIG (Homo sapiens, UniProt Q07325); assay: In vitro T cell adhesion to VCAM-1 induced by MIG under shear flow; format: cell-based; details: for Inhibition of chemokine-dependent T cell adhesion: MIG: 10 μg/ml peptide, T cells on VCAM-1 under shear flow; for T cell adhesion induced by MIG (result in words): T cells on VCAM-1
T8 construct: purchased PeproTech
T8 sequence (Q07325 23-125): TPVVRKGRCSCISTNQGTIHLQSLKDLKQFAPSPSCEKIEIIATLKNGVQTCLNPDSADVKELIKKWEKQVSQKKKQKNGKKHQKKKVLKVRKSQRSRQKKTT
Method: as §4, §5, §6, §3

[12] = system: arthritis; assay: In vivo mouse induced arthritis model (mBSA), leukocytes in knee cavity by FACS; design: species or system mice; details: 2 mg/kg on day 11, 24 hours before mBSA challenge, 48 hours after administration

B1: BKT-P46-FC: BKT-P46 peptide fused via spacer to the N'-terminus of secreted non-glycosylated human IgG1 Fc (Fc N297A), with IL6 signal peptide (protein)
chain: MNSFSTSAFGPVAFSLGLLLVLPAAFPAPVPPLDYPIPQTVLHHGGGSKGF[omitted - human IgG1 Fc with changes]
modifications: BKT-P46-FC polypeptide
B1 was tested, and the “Inhibition of chemokine-dependent T cell adhesion: BCA-1” value [1] was “− (− = no inhibition)”, the “Inhibition of chemokine-dependent T cell adhesion: SDF-1” value [2] was “− (− = no inhibition)” and the “Inhibition of chemokine-dependent T cell adhesion: I-TAC” value [3] was “++ (++ = 100% inhibition)”. The “T cell adhesion induced by I-TAC (result in words)” value [3] was “inhibited”, the “average clinical score of PLP-derived EAE” value ([4]; FIG. 5A, through day 55) was “considerably decreased” and the “accumulating clinical score of PLP-derived EAE” value (“accumulating clinical score” below) ([4]; FIG. 5B, through day 55) was “considerably decreased”. The “average clinical score of PLP-derived EAE” value ([4]; FIG. 6A, through day 33) was “decreased”, the “accumulating clinical score” value ([4]; FIG. 6B, through day 33) was “decreased” and the “mice with EAE clinical scores of 0” value [4] was 8 of 10. The “inhibition of delayed type hypersensitivity” value [5] was “inhibited”, the “Inhibition of chemokine-dependent T cell adhesion: RANTES” value [6] was “++ (++ = 100% inhibition)” and the “T cell adhesion induced by RANTES (result in words)” value [6] was “inhibited”. For the same molecule, the “average clinical score of MOG-derived EAE” value [7] was “decreased”, the “Inhibition of chemokine-dependent T cell adhesion: Eotaxin” value [8] was “++ (++ = 100% inhibition)” and the “T cell adhesion induced by eotaxin (result in words)” value [8] was “inhibited”. For the same molecule, the “Inhibition of chemokine-dependent T cell adhesion: IP-10” value [9] was “− (− = no inhibition)”, the “Inhibition of chemokine-dependent T cell adhesion: MCP-1” value [10] was “++ (++ = 100% inhibition)” and the “T cell adhesion induced by MCP-1 (result in words)” value [10] was “inhibited”. For the same molecule, the “Inhibition of chemokine-dependent T cell adhesion: MIG” value [11] was “++ (++ = 100% inhibition)” and the “T cell adhesion induced by MIG (result in words)” value [11] was “inhibited”.

B2: BKT-P2-FC: BKT-P2 peptide fused via spacer to the N'-terminus of secreted non-glycosylated human IgG1 Fc (Fc N297A), with IL6 signal peptide (protein)
chain: MNSFSTSAFGPVAFSLGLLLVLPAAFPAPVPPSIPSHSIHSAKAGGGSKGF[omitted - human IgG1 Fc with changes]
modifications: BKT-P2-FC polypeptide
B2 was tested, and the “Inhibition of chemokine-dependent T cell adhesion: I-TAC” value [3] was “++ (++ = 100% inhibition)”, the “T cell adhesion induced by I-TAC (result in words)” value [3] was “inhibited” and the “average clinical score of PLP-derived EAE” value ([4]; FIG. 6A, through day 33) was “decreased”. For the same molecule, the “accumulating clinical score” value ([4]; FIG. 6B, through day 33) was “decreased”, the “mice with EAE clinical scores of 0” value [4] was 9 of 10 and the “inhibition of delayed type hypersensitivity” value [5] was “inhibited”. The “relative potency in inhibiting delayed type hypersensitivity” value ([5]; comparison of the two polypeptides) was “more potent than BKT-P46-FC”, the “Inhibition of chemokine-dependent T cell adhesion: RANTES” value [6] was “++ (++ = 100% inhibition)” and the “T cell adhesion induced by RANTES (result in words)” value [6] was “inhibited”. The “average clinical score of MOG-derived EAE” value [7] was “decreased”, the “Inhibition of chemokine-dependent T cell adhesion: Eotaxin” value [8] was “++ (++ = 100% inhibition)” and the “T cell adhesion induced by eotaxin (result in words)” value [8] was “inhibited”. For the same molecule, the “Inhibition of chemokine-dependent T cell adhesion: IP-10” value [9] was “++ (++ = 100% inhibition)”, the “T cell adhesion induced by IP-10 (result in words)” value ([9]; T cells on VCAM-1) was “inhibited” and the “Inhibition of chemokine-dependent T cell adhesion: MCP-1” value [10] was “++ (++ = 100% inhibition)”. For the same molecule, the “T cell adhesion induced by MCP-1 (result in words)” value [10] was “inhibited”, the “Inhibition of chemokine-dependent T cell adhesion: MIG” value [11] was “++ (++ = 100% inhibition)” and the “T cell adhesion induced by MIG (result in words)” value [11] was “inhibited”. For the same molecule, the “number of neutrophils in the arthritic knee cavity” value ([12]; FIG. 8A) was “considerably reduced” and the “number of monocytes in the arthritic knee cavity” value ([12]; FIG. 8B) was “considerably reduced”.

— patent US9493557B2, “Chemokine binding polypeptides for treating autoimmunity and inflammation” (Biokine Therapeutics Ltd., priority 2009, dated 2016)
